# Screen size: about 270,000 compounds; about 5,800 (2.1%) were called active. This list was built around the results that the source calls inconclusive (neither active nor inactive); the mix of calls is not that of the screen. The call rests on the fitted dose curve; in most records, active means well fitted inhibition curve with a large enough effect; inconclusive means small, poorly fitted or top-dose-only effect; inactive means flat fitted curve, though single readings scatter. Potencies beside an inconclusive call are fits to weak or partial responses and may not hold up.
# Target: Microtubule-associated protein tau (Homo sapiens) (UniProt P10636)
# Assay: qHTS for Inhibitors of Tau Fibril Formation, Thioflavin T Binding; further: nearly all actives have a fitted effect of over 55% in size
# Conditions: recombinant tau K18 P301L, heparin-induced fibrillization, ThT fluorescence; series mostly up to 57.4 µM; activity, negative = inhibition: at the top concentration
# Outline: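 ThT emission at 510 nm, taken 1 hr after adding 30 uM dye, quantifies aggregates formed when 20 uM heparin acts on human tau K18 P301L for 6 hr at 37 C.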
# On the % scale 0 is the no-effect control and ±100 the full control effect; potency means the concentration at half of the fitted maximal effect; tags describe the fitted curve by direction and shape.
# UniProt P10636, sequence (P10636 whole entry, looked up): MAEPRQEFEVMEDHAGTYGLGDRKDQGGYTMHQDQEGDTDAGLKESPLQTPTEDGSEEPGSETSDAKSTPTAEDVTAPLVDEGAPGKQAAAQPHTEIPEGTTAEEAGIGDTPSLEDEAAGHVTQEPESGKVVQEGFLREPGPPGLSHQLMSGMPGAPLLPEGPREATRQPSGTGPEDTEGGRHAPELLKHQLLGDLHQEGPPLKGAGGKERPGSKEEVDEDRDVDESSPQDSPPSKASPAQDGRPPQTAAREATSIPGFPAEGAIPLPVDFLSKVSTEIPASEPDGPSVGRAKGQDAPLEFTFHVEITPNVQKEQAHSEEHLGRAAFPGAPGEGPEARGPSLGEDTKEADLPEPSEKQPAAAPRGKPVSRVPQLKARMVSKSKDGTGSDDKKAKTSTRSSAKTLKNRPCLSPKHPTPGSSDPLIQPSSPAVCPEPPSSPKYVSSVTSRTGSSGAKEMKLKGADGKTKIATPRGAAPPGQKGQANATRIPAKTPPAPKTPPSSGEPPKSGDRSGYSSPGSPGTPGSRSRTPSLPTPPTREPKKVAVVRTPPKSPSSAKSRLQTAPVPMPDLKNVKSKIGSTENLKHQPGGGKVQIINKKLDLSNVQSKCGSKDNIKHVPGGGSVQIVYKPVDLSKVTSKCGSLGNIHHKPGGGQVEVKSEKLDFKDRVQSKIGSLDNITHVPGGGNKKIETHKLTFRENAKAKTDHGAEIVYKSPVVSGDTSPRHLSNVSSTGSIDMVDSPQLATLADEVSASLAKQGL
SMILES,Potency,"activity, negative = inhibition"
CCC(C)(C(=O)NC1CCCCC1)N(C(=O)c1cnccn1)c1c(C)n(C)n(-c2ccccc2)c1=O (centres undefined),"inconclusive: 31.6 µM [inhibitor, partial curve]",
COc1cccc(C(=O)Nc2ccc(-n3nncc3-c3ccccc3)cc2)c1OC,,inactive: -9.91%
Cc1ccc(Sc2ncnc3onc(C)c23)cc1,"inconclusive: 8.91 µM [inhibitor, partial curve]",
Cc1ccccc1NC(=O)c1cc2c(-c3ccccc3)nn(-c3ccccc3)c2s1,,inactive: 8.87%
CC1(C)CC(=O)C(C=Nc2ccc(N)cc2)=C(O)C1,"inconclusive: 31.6 µM [inhibitor, single point]",
CCOC(=O)/C=C/C(=O)OCC(=O)Nc1ccc(OC)c(Cl)c1,"inconclusive: 7.08 µM [inhibitor, partial curve, poor fit]",
O=[N+]([O-])c1cc(Cl)ccc1N1CCN(c2cccc(C(F)(F)F)c2)CC1,"inconclusive: 20 µM [inhibitor, partial curve]",
CCc1c(C(=O)Nc2ccc(OC)cc2)[nH]c(C)c1C(C)=O,"inconclusive: 14.1 µM [inhibitor, partial curve]",
COCc1cc(C)nc2sc(C(=O)Nc3ccccc3O)c(N)c12,"inconclusive: 3.55 µM [inhibitor, full curve, poor fit]",
C=CCN1C(=O)/C(=C\c2ccc(OC(=O)c3ccco3)c(OC)c2)SC1=S,"inconclusive: 7.08 µM [inhibitor, partial curve]",
CCOC(=O)c1ccc(OCc2nc(-c3cccs3)no2)cc1,"inconclusive: 2.24 µM [inhibitor, full curve]",
CC(C)(C)c1csc(NC(=O)Cc2cccs2)n1,"inconclusive: 17.8 µM [inhibitor, partial curve]",
Cn1c(SCC(=O)N2CCN(c3ccccc3)CC2)nnc1-c1cc2ccccc2o1,"inconclusive: 2 µM [inhibitor, full curve]",
CC(C)C(=O)NC(Nc1cccc2cccnc12)C(Cl)(Cl)Cl (centres undefined),,inactive: -15.8%
COc1ccccc1-c1c(C)nn2c(-c3ccccc3)cc(-c3ccccc3)nc12,,inactive: -4.72%
CCOc1ccc(C2=NC(c3ccncc3)=Nc3ccc(C)cc3N2)cc1OCC,"inconclusive: 11.2 µM [inhibitor, partial curve]",
CC(=O)Nc1ccc(N/C=C/C(=O)c2ccco2)cc1,active: 10 µM,
COc1ccc(CCC(=O)NCc2ccc3c(c2)CCN3C(=O)c2ccc(Cl)cc2)cc1,,inactive: 8.57%
NNC(=O)c1ccc(COc2ccc3c(c2)CCC3)cc1,"inconclusive: 14.1 µM [inhibitor, partial curve]",
COc1ccc(OC)c(-c2[nH]nc3c2C(c2ccco2)C(C#N)=C(N)O3)c1 (centres undefined),"inconclusive: 15.8 µM [inhibitor, partial curve]",
O=C(NCCC[N+]1=CC=N[C@H]1c1ccccc1)N1CCCc2nc(-c3ccc(Br)cc3)ccc21,,inactive: -19.2% [at 11.5 µM]
CCC1=Nc2cc(C(=O)NCCc3ccc(OC)c(OC)c3)ccc2Sc2ccccc21,"inconclusive: 12.6 µM [inhibitor, partial curve, poor fit]",

SMILES,Potency,"activity, negative = inhibition"
O=C(COC(=O)c1ccc([N+](=O)[O-])o1)Nc1nc2ccccc2s1,"inconclusive: 0.794 µM [inhibitor, full curve, poor fit]",
CCc1c(C)sc2c1CCN(Cc1cccc(OC)c1)C2c1ccccc1 (centres undefined),"inconclusive: 35.5 µM [inhibitor, single point]",
Cc1cc(C(C)(C)C)oc1C(=O)N(CC(=O)NC1CCCC1)c1cccc(C(F)(F)F)c1,"inconclusive: 25.1 µM [inhibitor, partial curve, poor fit]",
C=CCNC(=S)N1CCN(CCN=CC2=C(O)CC(c3ccco3)CC2=O)CC1 (centres undefined),"inconclusive: 35.5 µM [inhibitor, single point]",
Cn1c(SCC(=O)Nc2ccc3nc(SCC(=O)N4CCCC4)sc3c2)nnc1-c1ccc(N)cc1,"inconclusive: 3.16 µM [inhibitor, full curve]",
COc1ccc2c(c1)CC/C2=N\OC(=O)c1cccc(C)c1,"inconclusive: 2.82 µM [inhibitor, full curve]",
Cc1ccc(NC(=O)c2cc(-c3cccc(O)c3)on2)cc1C,"inconclusive: 0.708 µM [inhibitor, full curve]",
Cc1[nH]n(-c2ccccc2)c(=O)c1/C=N\NC(=O)C1COc2ccccc2O1 (centres undefined),"inconclusive: 22.4 µM [inhibitor, partial curve]",
COc1cc(OC)c2c(-c3ccccc3)cc(=O)oc2c1C(CC(=O)N1CCN(c2ccccc2)CC1)c1ccc(N(C)C)cc1 (centres undefined),"inconclusive: 39.8 µM [inhibitor, single point]",
C=CCNC(=O)CCCOc1ccc(C)cc1,,inactive: -15.1%
Cc1cc(C)cc(NC(=O)C2CCCN(S(=O)(=O)c3cccc4nsnc34)C2)c1 (centres undefined),,inactive: -5.84%
COc1ccc(C=O)c(OC)c1,,inactive: -2.86%
Fc1ccc(Nc2nc(SCc3ccccc3Cl)nc3ccccc23)cc1,"inconclusive: 35.5 µM [activator, partial curve]",
Cc1ccc(OCC(=O)N/N=C\c2cn(Cc3ccccc3)c3ccccc23)cc1C,"inconclusive: 28.2 µM [inhibitor, single point]",
COc1ccc(OC)c(NC(=O)c2ccc(CSc3nnc(C)s3)cc2)c1,"inconclusive: 25.1 µM [inhibitor, partial curve]",
CCc1nc2ccccc2n2c(-c3ccc(C)cc3)c3c(=O)n(C)c(=O)n(C)c3c12,"inconclusive: 28.2 µM [inhibitor, single point]",
CCOC(=O)c1ccc(CNC(=O)c2cc(C(C)(C)C)oc2C)o1,,inactive: -14.3%
O=C(Nc1ccc2oc(-c3ccc(F)cc3)nc2c1)c1ccccc1F,"inconclusive: 2.82 µM [inhibitor, full curve]",
COc1ccc(/C=C\C(=O)NCC(=O)N/N=C/c2ccc(O)cc2O)cc1,"inconclusive: 20 µM [inhibitor, partial curve]",
COc1ccc(N=C2SC(CC(=O)Nc3ccc(F)cc3)C(=O)N2Cc2ccco2)cc1 (centres undefined),,inactive: 1.72%
COc1ccc(-n2nc3ccc(NC(=O)c4c(OC)cccc4OC)cc3n2)cc1,"inconclusive: 1.58 µM [inhibitor, full curve, poor fit]",
COC(=O)c1ccc(Oc2nc(Nc3ccc(C)c(C)c3)nc(N(C)C)n2)cc1,"inconclusive: 28.2 µM [inhibitor, partial curve, poor fit]",

SMILES,Potency,"activity, negative = inhibition"
CCOC(=O)c1c(-c2ccc(C)o2)csc1NC(=O)CN1CCC(C(N)=O)CC1,,inactive: -11.3%
Fc1ccc(-c2noc3ncnc(Nc4ccc(F)cc4F)c23)cc1,,inactive: -7.48%
COC(=O)CSc1nc2sc3c(c2c(=O)n1-c1ccccc1)CCN(C)C3,"inconclusive: 7.08 µM [inhibitor, partial curve]",
Cc1ccc(CNc2nc3ccc(Cl)cc3n3cnnc23)cc1,"inconclusive: 35.5 µM [activator, single point]",
Cn1c(C(=O)NCCN2CCc3ccccc3C2)cc2c(=O)n(C)c3ccccc3c21,"inconclusive: 11.2 µM [inhibitor, partial curve, poor fit]",
CC1CCc2c(sc(NC(=O)CSc3nnc(-c4ccccc4)o3)c2C#N)C1 (centres undefined),"inconclusive: 22.4 µM [inhibitor, partial curve]",
Cc1cccc2sc(NC(=O)C3CCN(S(=O)(=O)c4cc([N+](=O)[O-])ccc4Cl)CC3)nc12,"inconclusive: 14.1 µM [inhibitor, partial curve]",
O=C(CSC1=NCCS1)Nc1ccc(S(=O)(=O)NC2CCCCC2)cc1,"inconclusive: 22.4 µM [inhibitor, partial curve]",
CCOC(=O)c1c(NC(=O)CN2CCCCC2)sc2c1CCN(C(=O)OCC)C2,"inconclusive: 31.6 µM [inhibitor, partial curve]",
c1ccc2sc(NC3=NCN(Cc4ccc5c(c4)OCO5)CN3)nc2c1,"inconclusive: 31.6 µM [inhibitor, partial curve, poor fit]",
CCOc1ccccc1NC(=O)C1CCC(CNS(=O)(=O)c2ccc3c(c2)CCCC(=O)N3)CC1 (centres undefined),"inconclusive: 20 µM [inhibitor, single point]",
Cc1nn(-c2ccccc2)c(N2CCCC2)c1/C=C1\N=C(c2ccccc2)OC1=O,"inconclusive: 4.47 µM [inhibitor, single point]",
COc1cc(/C=C(/C#N)C(=O)c2c(C)[nH]c3ccccc23)ccc1OCC#N,"inconclusive: 20 µM [inhibitor, single point]",
Cc1ccc(C)n1-c1ccc(-c2nnc3n2CCCCC3)s1,"inconclusive: 35.5 µM [inhibitor, single point]",
Cc1c(Cl)cnc(NC(=O)COC(=O)C(NC(=O)c2ccco2)C(C)C)c1Cl (centres undefined),"inconclusive: 44.7 µM [inhibitor, partial curve, poor fit]",
O=C(O)CCCN1C(=O)/C(=C/c2cn(-c3ccccc3)nc2-c2cccs2)SC1=S,active: 15.8 µM,
COc1cccc(C(=O)/C=C/c2ccc(SC)cc2)c1,"inconclusive: 17.8 µM [inhibitor, partial curve]",
Fc1ccc2nc(Nc3nc4c(s3)CCCC4)sc2c1,"inconclusive: 10 µM [inhibitor, partial curve]",
COC(=O)[C@@H](NC(=O)N1CCc2nc(COc3ccccc3)c3c(c2C1)CO[C@@H](C)C3)C(C)C,,inactive: 2.73% [at 11.5 µM]
CC(C)Oc1ccc(CN2CCc3nc(Nc4ccc5c(c4)OCCO5)ncc3C2)cc1,"inconclusive: 8.91 µM [inhibitor, partial curve, poor fit]",

# Source: PubChem BioAssay AID1460 (National Center for Advancing Translational Sciences (NCATS), 2008)
